The supplement of paper PMC12217912
This is one part of the list. The full chains were built here from the parent and the listed change. Inactive controls read about 0.05.

B1: TEV protease; numbered along this chain (parent)
chain: MGESLFKGPRDYNPISSSICHLTNESDGHTTSLYGIGFGPFIITNKHLFRRNNGTLVVQSLHGVFKVKDTTTLQQHLVDGRDMIIIRMPKDFPPFPQKLKFREPQREERICLVTTNFQTKSMSSMVSDTSCTFPSGDGIFWKHWIQTKDGQCGSPLVSTRDGFIVGIHSASNFTNTNNYFTSVPKNFMELLTNQEAQQWVSGWRLNADSVLWGGHKVFMVKPEEPFQPVKEATQL

Variants of: B1
Assay: raw area under fraction-flipped curve 0-4 h after induction (AUC4h, not background-subtracted), DNA-recorder readout of cleavage of the substrate (dimensionless); higher = more cleavage of the substrate by the protease variant
Conditions: temperature: 34 °C; time window: 0-4 h after rhamnose induction
Method: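 In vivo DNA recorder in E. coli TOP10(DE3) ΔrhaA at 34 °C. Each TEVp single-site mutant (parent TEVp 0) is paired with a single-site variant of the 7-mer TEVs (canonical ENLYFQ|S). The substrate sits between flexible linkers in a Bxb1-sfGFP-TEVs-SsrA fusion, so cleavage stabilises Bxb1 and speeds flipping of a recombination array, read by NGS. The value is the raw area under the fraction-flipped curve over 0-4 h after rhamnose induction (AUC4h), with ≥20 reads per time point. It is not background-subtracted; inactive controls average about 0.047.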
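Further: Bxb1 expression induced with 0.2% (w/v) L-rhamnose at OD600 near 0.5, cultures sampled hourly, flipped fraction per protease–substrate barcode pair counted by paired-end Illumina sequencing.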

Row | Variant | area with substrate ENLYFAS | area with substrate ENLYFCS | area with substrate ENLYFDS | area with substrate ENLYFES | area with substrate ENLYFFS | area with substrate ENLYFGS | area with substrate ENLYFIS | area with substrate ENLYFKS | area with substrate ENLYFMS | area with substrate ENLYFNS | area with substrate ENLYFPS | area with substrate ENLYFSS | area with substrate ENLYFTS | area with substrate ENLYFVS | area with substrate ENLYFRS | area with substrate ENLYFWS | area with substrate ENLYFYS | area with substrate ENLYFHS | area with substrate ENLYFLS
1 | R106C | 0.057 | 0.0753 | 0.0364 | 0.0619 | 0.061 | 0.0502 | 0.0599 | 0.0663 | 0.0736 | 0.0678 | 0.0753 | 0.0666 | 0.0565 | 0.0645 | – | – | – | – | –
2 | G37D | 0.0468 | 0.0515 | 0.0497 | 0.0401 | – | – | 0.0473 | – | 0.0302 | 0.0448 | 0.0536 | – | 0.0419 | – | 0.0511 | 0.0527 | 0.0434 | – | –
3 | I19D | 0.0438 | 0.047 | 0.0441 | 0.0391 | 0.0341 | – | 0.0388 | 0.0603 | 0.0421 | 0.0492 | 0.0497 | 0.0384 | 0.0492 | 0.0371 | 0.0354 | – | 0.0254 | 0.0514 | 0.0471
4 | T114G | 0.0362 | – | 0.0582 | 0.0692 | 0.0739 | – | 0.0569 | 0.057 | – | 0.0608 | 0.0628 | – | – | 0.0751 | 0.0622 | – | 0.0416 | – | –
5 | T119K | 0.0219 | 0.0634 | – | 0.0887 | 0.0354 | – | 0.053 | – | – | 0.0473 | 0.062 | 0.0607 | – | – | 0.0662 | – | – | – | 0.0633
6 | Y179H | 0.0562 | 0.0555 | 0.0726 | 0.0586 | 0.0613 | 0.061 | 0.0591 | – | 0.0667 | 0.0657 | 0.0616 | 0.0445 | 0.0709 | – | 0.0353 | 0.0397 | 0.0547 | – | –
7 | I85Q | 0.048 | – | 0.0466 | 0.0608 | 0.0651 | 0.055 | 0.0484 | 0.054 | 0.0652 | – | 0.0547 | 0.0505 | – | – | 0.0569 | 0.0299 | 0.051 | 0.0519 | –
8 | I85S | 0.0505 | – | – | 0.0455 | 0.057 | 0.0455 | 0.0555 | – | 0.048 | – | 0.0553 | – | – | 0.0523 | 0.0463 | 0.0484 | 0.0544 | – | –
9 | S130F | 0.0378 | 0.0611 | – | 0.083 | – | – | 0.0596 | 0.05 | – | 0.0638 | 0.0502 | – | 0.0789 | – | – | – | – | – | 0.0639
10 | K185R | 0.074 | 0.0594 | – | 0.0819 | – | – | 0.0558 | 0.0485 | 0.0603 | – | – | 0.0606 | – | – | 0.0503 | – | – | – | –
11 | G35Y | 0.034 | – | – | 0.052 | – | – | 0.0322 | 0.0656 | – | 0.0391 | 0.0507 | – | – | – | – | – | 0.0351 | – | –
12 | E231S | 0.0879 | – | – | 0.0771 | – | – | – | 0.0602 | 0.0488 | – | – | – | – | 0.0692 | – | – | – | 0.0646 | –
13 | F65K | 0.0516 | – | – | 0.125 | 0.0652 | 0.055 | 0.0546 | – | 0.0611 | 0.0617 | – | – | – | – | – | 0.045 | 0.047 | 0.0553 | 0.05
14 | W212I | 0.0457 | 0.0879 | – | 0.0896 | 0.0793 | – | 0.06 | 0.0673 | 0.0787 | – | 0.0662 | – | 0.0665 | – | 0.0851 | 0.0432 | 0.0568 | – | –
15 | L5G | 0.056 | – | – | – | 0.0572 | – | 0.0634 | – | 0.098 | 0.053 | 0.0528 | – | 0.0476 | – | 0.0649 | 0.0544 | 0.0493 | 0.0531 | 0.0609
16 | V58I | 0.0593 | – | – | 0.078 | 0.0691 | – | 0.0337 | – | 0.0615 | – | – | 0.0726 | – | – | – | – | – | – | 0.053
17 | M188K | 0.0522 | 0.0698 | 0.0656 | 0.058 | 0.0651 | 0.0569 | 0.0578 | – | 0.0408 | – | 0.0665 | 0.0431 | 0.0611 | 0.0595 | 0.069 | 0.0559 | – | 0.0452 | –
18 | V126K | 0.0599 | – | 0.076 | 0.0708 | 0.0669 | – | 0.0598 | 0.0679 | 0.0563 | 0.0592 | 0.06 | 0.0406 | – | – | – | 0.0673 | – | 0.0622 | 0.0806
19 | S135E | 0.0855 | – | – | – | – | 0.0416 | – | 0.0725 | 0.0495 | – | – | – | – | 0.0455 | 0.0623 | 0.0535 | – | 0.0551 | –
20 | F101G | 0.0502 | – | 0.0393 | 0.0617 | – | – | 0.0338 | 0.0536 | 0.0511 | 0.0706 | – | – | 0.0479 | – | 0.0456 | – | 0.0174 | – | –
21 | F101M | 0.0644 | 0.0515 | 0.0613 | 0.0542 | 0.0725 | 0.0536 | 0.0663 | – | 0.0311 | 0.0685 | 0.0596 | 0.062 | 0.0629 | 0.0538 | 0.0834 | – | 0.0638 | – | 0.0503
22 | P225Y | 0.0488 | – | 0.0532 | 0.0758 | 0.0846 | 0.05 | 0.0589 | 0.047 | 0.0684 | 0.0477 | 0.0645 | 0.052 | 0.0591 | 0.063 | – | – | 0.0384 | 0.0477 | 0.0648
23 | N178L | 0.0421 | 0.0451 | – | – | 0.0782 | – | 0.056 | 0.0636 | 0.0585 | 0.068 | 0.0485 | – | 0.0265 | – | 0.0562 | – | 0.0673 | 0.1 | –
24 | W141D | 0.0422 | 0.0478 | – | 0.061 | 0.0628 | 0.0475 | 0.0381 | – | 0.0528 | 0.0541 | 0.0534 | 0.0666 | – | – | 0.0495 | – | 0.0359 | 0.058 | 0.0581
25 | D27H | 0.0433 | 0.0504 | – | 0.0558 | 0.0446 | – | 0.0565 | – | 0.0704 | 0.0621 | 0.0645 | 0.0574 | – | 0.0781 | 0.0562 | 0.0565 | – | 0.0594 | –
26 | Q146Y | 0.0484 | 0.0605 | – | 0.0563 | 0.0749 | – | 0.0604 | 0.057 | 0.0723 | 0.0673 | 0.0578 | – | 0.0465 | 0 | 0.0676 | – | – | – | –
27 | E108K | 0.0356 | 0.0347 | – | – | 0.0704 | – | 0.0515 | 0.0683 | 0.05 | 0.0581 | – | 0.0639 | 0.0777 | 0.0676 | 0.0458 | – | 0.0521 | – | –
28 | E108W | 0.0606 | 0.055 | 0.0671 | 0.0914 | 0.0557 | 0.05 | 0.0757 | 0.0584 | 0.0661 | 0.061 | 0.0523 | 0.0523 | 0.0544 | 0.0513 | 0.0592 | 0.0517 | 0.0569 | 0.0825 | 0.0781
29 | D137W | 0.065 | 0.0767 | – | 0.0674 | – | – | – | – | – | – | – | – | – | 0.0591 | 0.0515 | – | 0.0643 | – | –
